Measurements published in the RNAGym collection of RNA variant scans (doi:10.1093/nar/gkz1192).
Read counts are not given, so values of variants with three or more changes are uncertain.

B1: CPEB3 Ribozyme (parent)
chain: UAACAGGGGGCCACAGCAGAAGCGUUCACGUCGCAGCCCCUGUCAGAUUCUGGUGAAUCUGCGAAUUCUGCUGUAUAUCUC

Variants of: B1
Experiment: self-cleavage, relative activity (ratio to wild type); higher = more cleavage; in vitro, sequencing
Summary of the method: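 Barcoded CPEB3 ribozyme mutants, produced by rounds of error-prone PCR, self-cleaved while being transcribed with T7 RNA polymerase for 5 hours at 37°C and during a subsequent 15 min DNase I step before EDTA was added. Sequencing of template-switched cDNA on Illumina gave cleaved and total reads, and DNA sequencing assigned barcodes to variants. Each variant's relative activity is its cleaved/total read fraction divided by the unmutated ribozyme's fraction, averaged across three batches. A variant needed a minimum of 5 reads.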
Work on A5U A13G U31A U48C A56U yielded a self-cleavage of 0.27. In the case of A5U A13G U31C A56U C71U, the self-cleavage is reported as 0.04. A5U A13G U41A gave a self-cleavage of 0.18. In the case of A5U A13G U41A A56G, the self-cleavage is reported as 0.33. In the case of A5U A13G U54A A56G U58C G70C, the self-cleavage is reported as 0.2. Work on A5U A13G U74C yielded a self-cleavage of 0.88. Work on A5U A13G U78C yielded a self-cleavage of 0.92. For A5U A13U A18G A35G A45G U60C, the self-cleavage was 1.16. Variant A5U A13U A18U A65G U69A has a self-cleavage of 1.07. Variant A5U A13U A20G C34U has a self-cleavage of 0.38. Work on A5U A13U A20G U26A U31A yielded a self-cleavage of 0.59. In the case of A5U A13U A20G U43G, the self-cleavage is reported as 0.09. A5U A13U A21G A47C G53A A75G gave a self-cleavage of 0.12. A5U A13U A47G U51A showed a self-cleavage of 0.99. A5U A13U C23U showed a self-cleavage of 0.47. For A5U A13U C23U A35U U51A A65G, the self-cleavage was 0.15. In the case of A5U A13U C23U A45G, the self-cleavage is reported as 0.17. A5U A13U G24U U25C A45U U51A showed a self-cleavage of 0.1. For A5U A13U G53C A57G, the self-cleavage was 0.47. A5U A13U U26A A64G G73C A77U showed a self-cleavage of 1.29. A5U A13U U31A U66C showed a self-cleavage of 0.21. With A5U A13U U31C U41C U51C U72C the self-cleavage was 0.7. A5U A13U U41A A57G U72A gave a self-cleavage of 0.22. Work on A5U A13U U58A yielded a self-cleavage of 0.9. A5U A13U U66C gave a self-cleavage of 0.76. In the case of A5U A13U U76A, the self-cleavage is reported as 1.21. In the case of A5U A15G A18G G73U, the self-cleavage is reported as 0.47. A5U A15G A20G A75U showed a self-cleavage of 0.54. For A5U A15G A20G A77G, the self-cleavage was 1.14. For A5U A15G A20G U51A U54C U66C, the self-cleavage was 0.14. Variant A5U A15G A20U U49C has a self-cleavage of 0.12. A5U A15G A28G A35G U41A C44U showed a self-cleavage of 0.11. In the case of A5U A15G A28U A57G C79G, the self-cleavage is reported as 0.92. With A5U A15G A35G U41A U60A the self-cleavage was 0.09. A5U A15G A45G A77U gave a self-cleavage of 0.79. A5U A15G A45G U60C U69A A75U showed a self-cleavage of 0.31. In the case of A5U A15G A57G, the self-cleavage is reported as 0.91. With A5U A15G A64G the self-cleavage was 0.98. In the case of A5U A15G C34A A45G U60C, the self-cleavage is reported as 0.59. Work on A5U A15G C37U U78C yielded a self-cleavage of 0.56. A5U A15G G19U U54C gave a self-cleavage of 0.22. A5U A15G G33U U80C showed a self-cleavage of 0.54. A5U A15G G73C gave a self-cleavage of 1.23. For A5U A15G U26A G33A U49C A56U U66C, the self-cleavage was 0.07. Variant A5U A15G U26A G46U U48A has a self-cleavage of 0.37. A5U A15G U31G U51C showed a self-cleavage of 0.78. A5U A15G U41C U43A U66C gave a self-cleavage of 0.26. A5U A15G U43C G55U gave a self-cleavage of 0.58. A5U A15U A20G U25C A45U A56U gave a self-cleavage of 0.28. Variant A5U A15U A20U U48C has a self-cleavage of 0.08. A5U A15U A45G C68G U80C gave a self-cleavage of 0.22. Work on A5U A15U A47U U58C yielded a self-cleavage of 0.23. With A5U A15U A56G A65U U72C the self-cleavage was 0.12. For A5U A15U C27U A64G, the self-cleavage was 0.14. A5U A15U C38A U41C U58C A65U U80A gave a self-cleavage of 0.07. With A5U A15U G16A U26A U54A A65G A77G the self-cleavage was 0.13. For A5U A15U U26A U69A, the self-cleavage was 0.33. A5U A15U U26C C38A A45G U54C A56U gave a self-cleavage of 0.05. In the case of A5U A15U U31C U80C, the self-cleavage is reported as 0.72. Variant A5U A15U U43C U54A A77C has a self-cleavage of 0.52. For A5U A15U U58G, the self-cleavage was 0.49. In the case of A5U A18C U25C G52A A64G U80C, the self-cleavage is reported as 0.07. Work on A5U A18G A20U U25C A56G U58A yielded a self-cleavage of 0.27. A5U A18G A21C C59A U78C gave a self-cleavage of 0.07. A5U A18G A21G showed a self-cleavage of 0.45. For A5U A18G A21U U48A, the self-cleavage was 0.41. Work on A5U A18G A57G yielded a self-cleavage of 0.58. For A5U A18G C38G U54C, the self-cleavage was 0.09. With A5U A18G U26A U41A U43A A47G the self-cleavage was 0.11. Variant A5U A18G U31C U41A C44U A56U U58A has a self-cleavage of 0.08. With A5U A18G U41A U54C U58A the self-cleavage was 0.12. Variant A5U A18G U43C U51A has a self-cleavage of 0.68. A5U A18U A20G A21G U41A C62U showed a self-cleavage of 0.08. For A5U A18U A21C G52A U69C, the self-cleavage was 0.05. Variant A5U A18U A35U A56U has a self-cleavage of 0.18. With A5U A18U A47G C62U the self-cleavage was 0.17. A5U A18U A57G A64U U80C showed a self-cleavage of 0.15. Variant A5U A18U C62A A64G has a self-cleavage of 0.15. A5U A18U G22A A56G showed a self-cleavage of 0.38. Variant A5U A18U G33C U72C has a self-cleavage of 0.11. Variant A5U A18U U25C G53C U72A has a self-cleavage of 0.24. With A5U A18U U31A U41A the self-cleavage was 0.26. A5U A18U U54C gave a self-cleavage of 0.24.
